According to the BET-seq Pho4 binding data (Le et al. 2018):
Some of the results follow. These are noisy estimates, calculated here from bound and input reads.

target: T1, Pho4 (S. cerevisiae) (UniProt P07270); experiment: relative binding free energy (BET-seq); higher = weaker binding; settings: reference: library average
T1 sequence: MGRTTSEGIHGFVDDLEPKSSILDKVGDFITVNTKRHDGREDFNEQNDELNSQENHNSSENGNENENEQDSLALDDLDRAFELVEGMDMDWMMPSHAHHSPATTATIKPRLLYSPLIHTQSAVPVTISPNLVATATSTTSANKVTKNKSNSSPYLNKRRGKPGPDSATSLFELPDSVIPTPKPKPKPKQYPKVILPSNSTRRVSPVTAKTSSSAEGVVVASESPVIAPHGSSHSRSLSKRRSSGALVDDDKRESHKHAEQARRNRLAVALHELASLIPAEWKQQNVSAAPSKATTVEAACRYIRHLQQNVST

| Sequence | relative binding free energy [kcal/mol] |
| --- | --- |
| AGGGGCACGTGGTTTA | -0.14 |
| TCGAGCACGTGGCGGT | -0.18 |
| GTAGTCACGTGGTTGG | 0.08 |
| CGTCTCACGTGGGAGG | 0.1 |
| GTTTTCACGTGGCGGC | 0.35 |
| AGCGTCACGTGAGCGG | 0.2 |
| TGTAACACGTGCGCGG | -0.14 |
| CTGGCCACGTGATGGG | -0.03 |
| GTTCACACGTGTTGAG | 0.24 |
| TGGCGCACGTGAATGG | 0.07 |
| GTTGCCACGTGAGAGG | 0.13 |
| TAAATCACGTGGTAGT | 0.15 |
| GGGAGCACGTGAGAAG | 0.3 |
| TGGGCCACGTGTCAGG | -0.25 |
| GCGGTCACGTGGGGTT | 0.08 |
| TTATGCACGTGAATGC | 0.16 |
| GGAATCACGTGATGAT | 0.37 |
| AAATACACGTGTTGTA | 0.09 |
| CGTGCCACGTGGGGCG | -0.24 |
| GGTGGCACGTGTCGCG | -0.08 |
| GGATTCACGTGCGAAT | 0.32 |

| Sequence | relative binding free energy [kcal/mol] |
| --- | --- |
| GTGGGCACGTGGAAAA | 0.11 |
| CGAGGCACGTGTAGTT | 0.04 |
| CTTTTCACGTGCGTGG | 0.24 |
| TACTTCACGTGAGGTA | 0.32 |
| AAGGACACGTGGAGGG | 0.07 |
| GAGCTCACGTGGAGGG | 0.21 |
| AGTATCACGTGAGAGA | 0.46 |
| TGGATCACGTGAGTAT | 0.24 |
| TAGCTCACGTGGATGA | 0.29 |
| TGTACCACGTGGTGTT | -0.1 |
| GGTTTCACGTGACGCT | 0.35 |
| GGTGACACGTGCTGTG | -0.15 |
| AAGGACACGTGGAGGC | 0.08 |
| CTGGTCACGTGGATTA | 0.1 |
| ATCGCCACGTGTGTGG | 0.04 |
| TATACCACGTGTGTGA | -0.05 |
| ACTGTCACGTGAAGTT | 0.28 |
| TATCGCACGTGATGTG | -0.06 |
| GATTCCACGTGGAGGG | 0.2 |
| AAGGTCACGTGTCGAG | 0.15 |
| CGTTGCACGTGTTAAG | -0.09 |

| Sequence | relative binding free energy [kcal/mol] |
| --- | --- |
| TTCTTCACGTGTGTCG | 0.21 |
| ATAATCACGTGTTAGT | 0.07 |
| GTTAGCACGTGTGAAG | -0.04 |
| TGTTCCACGTGTAGAT | 0.19 |
| CTATGCACGTGTTATA | -0.09 |
| TTATTCACGTGTTACT | 0.08 |
| GGATTCACGTGGGCTG | 0.17 |
| GTAAACACGTGAGCGG | 0.33 |
| ATGAACACGTGTAGTG | -0.09 |
| CGTGCCACGTGTGGGG | -0.1 |
| GCATTCACGTGTGGTG | 0.37 |
| TGCGGCACGTGGCGAT | -0.19 |
| CAGGGCACGTGGTAAT | -0.22 |
| GATGACACGTGAGTAT | 0.37 |
| CTCGTCACGTGGGTGT | -0.17 |
| TGGAGCACGTGCGGTA | -0.19 |
| ATGTGCACGTGGGTGT | -0.14 |
| GGATGCACGTGGAATA | 0.21 |
| TGTGTCACGTGCGGTT | 0.09 |
| TTAGGCACGTGAGGAA | 0.15 |
| TGTCACACGTGGTATT | 0.04 |
